Assay: soluble fraction after stress (log2 fold change); higher = more stays soluble; pooled small domains, quantitative proteomics
Conditions: stress: 50 degC
Method in brief: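 Pooled custom libraries of small protein domains were measured in a high-throughput format, with quantitative proteomics as the read-out. Each library was stressed at 50°C. Aggregation propensity is given as the base-two logarithm of the fold change in how much of each protein stays soluble after the stress. Higher values mean a larger share of the protein remains in solution.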
For “HMLFDTARAYTDSEVKLGEAFDGIRTEVYIATKTAAQNAEDFWKDLHTSLTNLRTDYIDLYQFH”, the “soluble fraction (log2)” value was 0.0619. For “HMATGTVKWFNSTKGYGFIAPDDGGKDIFVHISAVERAGLTGLQDNQKIDFEMQSGRDGRASASDLKL”, the “soluble fraction (log2)” value was -0.08. For “HMSENDYAILGVKESDSNEEIKKAFRRLAIENHPDKIEHLGETARKKAELNFSKINEAYQRIKKQRG”, the “soluble fraction (log2)” value was 0.0584. In the case of “HMALDYYGVLGVNQDATNREIKSAYRKLARELHPDVNPSEEAAEKFKDVTTAYEVLSDPEKRRIVDMGGDP”, the “soluble fraction (log2)” value is reported as -0.00512. In the case of “HMSGKWALLVLFTLNKSNGTPVRFKQLERDIPDISQKMLTSVLRSLESDGLVSRKAYAEIPPRVEYSLT”, the “soluble fraction (log2)” value is reported as -1.29. For “HMNNLYETLGVERTASQNEIKKAYRVLARKYHPDANPDDAVAEQKFKEVAMAYEILSDDQKREEYDRFGS”, the “soluble fraction (log2)” value was 0.184. For “HMGGYEVQSGDTLWDLAVRFYGSGAKASAIYEANRDVIEEEAKKRGKGSSSSGYWIFPGTKLAI”, the “soluble fraction (log2)” value was -0.202. With “HMRADRLISLVLLLQTRGRMTARELADELEVTERTIYRDVIALSSAGIPLYTDRGPGGGIALLDS” the “soluble fraction (log2)” value was -1.68. With “HMAAVLKQGSQGDSVKTVQQKLIRWGYLKGSADGIFGAKTKAAVIAFQKKNGLTADGIIGTRTAQALGISL” the “soluble fraction (log2)” value was -0.126.

Reference: the domain aggregation screens of Martell et al. (2025)
